Results published in the supplement of paper PMC9446081.
Hit rate of the full screen: of about 39,000 compounds, about 220 (0.56%) showed activity. The list shows a part of the results.

Tested on: Escherichia coli K-12 BW25113
Assay: relative growth (OD600 normalised to plate interquartile mean) (fraction); higher = less growth inhibition, active = 0.2 or less
Details: 50 µM; LB; incubation time: overnight (16-24 h)
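Also: static incubation at 37 °C against the wild-type strain, values averaged over two biological replicates.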

Structure (SMILES)	relative growth
C[C@@H]1CN([C@@H](C)CO)C(=O)c2cc(NC(=O)Nc3ccc(C(F)(F)F)cc3)ccc2O[C@@H](C)CCCCO[C@@H]1CN(C)S(=O)(=O)c1ccc(Cl)cc1	inactive: 1.02
C[C@@H]1CN([C@@H](C)CO)C(=O)c2cc(NC(=O)C3CCCCC3)ccc2O[C@@H](C)CCCCO[C@@H]1CN(C)C(=O)c1ccncc1	inactive: 1.01
Cc1cccc(Oc2ccc(NC(=O)C3CCC(C)CC3)cc2)c1 (stereo not given)	inactive: 0.992
O=c1[nH]c(=O)n([C@H]2C[C@H](O)[C@@H](CO)O2)cc1Br	inactive: 0.944
Cc1ccc(S(=O)(=O)Nc2ccc3c(c2)C(=O)N([C@H](C)CO)C[C@H](C)[C@H](CN(C)C(=O)c2ccccc2)OCCCC[C@H](C)O3)cc1	inactive: 1.01
COc1ccc2c3c(n(c2c1)C)[C@H](CO)N(C[C@]13CN(C1)C(=O)Nc1cccc(c1)F)C(=O)CN1CCOCC1	inactive: 1.01
CCOC(=O)CN(C#N)c1nc(C)cc(C)n1	inactive: 0.904
C[C@@H]1CN([C@@H](C)CO)C(=O)Cc2cc(NS(=O)(=O)c3ccccc3)ccc2O[C@@H]1CN(C)Cc1ccncc1	inactive: 1
CC(C)NC(=O)N[C@H]1C=C[C@H](CC(=O)NCCCN(C)C)O[C@@H]1CO	inactive: 1.03
C[C@@H]1CN([C@H](C)CO)C(=O)c2cc(NC(=O)Nc3ccccc3)ccc2O[C@@H](C)CCCCO[C@H]1CN(C)C(=O)Nc1ccc(C(F)(F)F)cc1	inactive: 1.02
COc1ccc(S(=O)(=O)Nc2ccc3c(c2)C(=O)N([C@@H](C)CO)C[C@H](C)[C@H](CN(C)C(=O)Nc2cccc4ccccc24)OCCCC[C@H](C)O3)cc1	inactive: 1.03
CNC(=O)C[C@H]1CC[C@@H]2[C@H](COC[C@H](O)CN2C(=O)c2ccc3c(c2)OCO3)O1	inactive: 0.99
Cc1noc(C)c1NC(=O)Nc1ccc2c(c1)C(=O)N([C@@H](C)CO)C[C@H](C)[C@@H](CN(C)C(=O)Nc1cccc3ccccc13)OCCCC[C@H](C)O2	inactive: 1.03
CC(=O)c1cc(Cl)c(C)cc1O	inactive: 0.981
COc1ccccc1CNC(=O)C[C@H]1C[C@@H]2c3cc(NC(=O)C4CCOCC4)ccc3O[C@@H]2[C@H](CO)O1	inactive: 1.01
[O-][NH2+]N1CCCCCCC1	inactive: 1.03
Cc1noc(C)c1NC(=O)N(C)C[C@H]1Oc2ccc(NS(=O)(=O)c3ccccc3)cc2C(=O)N([C@@H](C)CO)C[C@@H]1C	inactive: 1.01
O=C(CN1CCOCC1)NCC[C@@H]1CC[C@H](NC(=O)c2ccc3c(c2)OCO3)[C@H](CO)O1	inactive: 0.944
C[C@@H]1CCCCO[C@H](CN(C)S(=O)(=O)c2ccc(Cl)cc2)[C@@H](C)CN([C@H](C)CO)C(=O)c2cc(NC(=O)Nc3ccc(C(F)(F)F)cc3)ccc2O1	inactive: 1
COCC#Cc1cnc2c(c1)C(=O)N([C@@H](C)CO)C[C@@H](C)[C@@H](CN(C)C(=O)Nc1cc(F)ccc1F)O2	inactive: 1

Structure (SMILES)	relative growth
C[C@@H]1CN([C@@H](C)CO)C(=O)c2cccc(NC(=O)c3cnccn3)c2O[C@@H]1CN(C)S(=O)(=O)c1ccccc1	inactive: 1
CCC(=O)N1C[C@]2(C1)CN([C@H](CO)c1[nH]c3cc(ccc3c12)OC)C(=O)CN1CCOCC1	inactive: 1
C[C@@H]1CN([C@H](C)CO)C(=O)c2cc(C#Cc3cccc(F)c3)cnc2O[C@H]1CN(C)C(=O)C1CCOCC1	inactive: 0.996
COc1ccc2c3c(n(c2c1)C)[C@H](CO)N(Cc1cc(cc(c1)OC)OC)C[C@]13CCN(CC1)C(=O)CN1CCOCC1	inactive: 0.999
Cc1ccccc1S(=O)(=O)N1C[C@H](O)COC[C@@H]2O[C@H](CC(=O)N3CCC(Cc4ccccc4)CC3)CC[C@H]21	inactive: 0.826
C[C@@H]1CN([C@@H](C)CO)C(=O)Cc2cc(NC(=O)c3ccncc3)ccc2O[C@@H]1CN(C)S(=O)(=O)c1cccs1	inactive: 1.02
COc1ccc(C#Cc2cnc3c(c2)C(=O)N([C@@H](C)CO)C[C@@H](C)[C@H](CN(C)C(=O)CC2CC2)O3)cc1	inactive: 1.02
CC1(Cn2ccnn2)C(C(=O)O)N2C(=O)CC2S1(=O)=O (stereo not given)	inactive: 0.985
COCC#Cc1ccc2c(c1)O[C@@H](CN(C)C(=O)Nc1ccc(OC)cc1)[C@H](C)CN([C@H](C)CO)S2(=O)=O	inactive: 1.01
COc1ccc(NC(=O)N(C)C[C@@H]2Oc3c(NS(C)(=O)=O)cccc3C(=O)N([C@H](C)CO)C[C@H]2C)cc1	inactive: 1.01
O=C(CN1CCOCC1)NCC[C@H]1CC[C@@H](NC(=O)Cc2ccccn2)[C@@H](CO)O1	inactive: 0.952
CC(=O)Nc1ncc([N+](=O)[O-])s1	inactive: 0.923
C[C@@H]1CCCCO[C@H](CN(C)Cc2ccc(Cl)c(Cl)c2)[C@H](C)CN([C@@H](C)CO)C(=O)c2cc(NC(=O)Nc3ccc(F)cc3)ccc2O1	inactive: 0.999
COc1ccc(S(=O)(=O)Nc2cccc3c2O[C@H](CN(C)Cc2ccc(Cl)c(Cl)c2)[C@H](C)CN([C@H](C)CO)C3=O)cc1	inactive: 1.03
C[C@H]1CN([C@@H](C)CO)C(=O)c2c(c3ccccc3n2C)-c2ccccc2CO[C@@H]1CN(C)Cc1cccc(C(F)(F)F)c1	inactive: 1.03
Cc1cccnc1[C@@H](NC(=O)C1CCN(CCOc2ccc(Cl)cc2Cl)CC1)c1ccc(Cl)cc1	inactive: 0.994
C[C@H](CO)N1C[C@H](C)[C@H](CN(C)C(=O)Nc2cccc3ccccc23)Oc2ccc(NC(=O)CCCCCC(=O)Nc3ccccc3N)cc2CC1=O	inactive: 1.04
Cc1noc(C)c1NC(=O)N(C)C[C@@H]1OCCCC[C@H](C)Oc2ccc(NC(=O)NC3CCCCC3)cc2C(=O)N([C@@H](C)CO)C[C@@H]1C	inactive: 0.842
C=CC(=O)NCCCCNC(=O)C=C	inactive: 0.999
C[C@@H]1CCCCO[C@H](CN(C)C(=O)C2CCCCC2)[C@H](C)CN([C@H](C)CO)C(=O)c2cc(NC(=O)CCC(F)(F)F)ccc2O1	inactive: 0.982
